Measurements reported in PMC4007762.
Changes are numbered by the printed parent chain. Names may count otherwise. These are yes or no findings as the source states them, for the method shown. In cells and extracts the contact can be indirect. Some results given as binding are weak or reduced against the parent protein; the word gives no strength. Where a sequence is shown, tags or fusion partners need not be part of it. Each block holds one binder with its values, some of them ahead of it.

Key:
[1] = target: T1, GST–PTP-PEST-C231S fusion protein (catalytically inactive trapping mutant) (UniProt Q05209); assay: pull-down; substrate trapping: 10 µg GST fusion protein with 1 mg lysate of pervanadate-treated transfected cells (HEK 293T named for Fig. 1B and 6B), modified RIPA buffer, 4°C, 1 hour; western blot with anti-YFP; only the target purified
T1 sequence: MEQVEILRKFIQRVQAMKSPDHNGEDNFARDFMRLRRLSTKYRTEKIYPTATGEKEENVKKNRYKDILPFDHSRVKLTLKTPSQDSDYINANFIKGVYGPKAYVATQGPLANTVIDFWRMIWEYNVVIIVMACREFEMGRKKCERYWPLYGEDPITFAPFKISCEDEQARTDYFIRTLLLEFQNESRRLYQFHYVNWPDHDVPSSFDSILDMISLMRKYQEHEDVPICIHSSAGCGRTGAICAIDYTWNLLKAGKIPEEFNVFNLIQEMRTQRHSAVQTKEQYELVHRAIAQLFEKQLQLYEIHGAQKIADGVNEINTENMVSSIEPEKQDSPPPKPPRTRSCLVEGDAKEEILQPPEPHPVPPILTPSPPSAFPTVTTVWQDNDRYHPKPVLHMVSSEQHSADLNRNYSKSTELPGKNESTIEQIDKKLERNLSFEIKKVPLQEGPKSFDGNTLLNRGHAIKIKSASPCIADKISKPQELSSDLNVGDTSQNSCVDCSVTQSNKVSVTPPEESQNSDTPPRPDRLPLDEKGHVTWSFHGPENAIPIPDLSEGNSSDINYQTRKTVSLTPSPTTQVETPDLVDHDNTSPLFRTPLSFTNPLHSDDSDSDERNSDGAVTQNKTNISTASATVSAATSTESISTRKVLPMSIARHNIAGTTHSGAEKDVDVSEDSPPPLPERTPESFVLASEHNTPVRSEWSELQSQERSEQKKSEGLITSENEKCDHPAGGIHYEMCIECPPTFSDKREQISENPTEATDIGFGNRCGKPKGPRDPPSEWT

[2] = target: T2, GST–PTP-PEST-WT fusion protein (UniProt Q05209); assay: condition: 10 µg fusion protein per 1 mg of cell lysate; pull-down; substrate trapping: 10 µg GST fusion protein with 1 mg lysate of pervanadate-treated transfected cells (HEK 293T named for Fig. 1B and 6B), modified RIPA buffer, 4°C, 1 hour; western blot with anti-YFP; only the target purified
T2 sequence: T1 sequence with S231C

[3] = target: T1, GST–PTP-PEST-C231S fusion protein (catalytically inactive trapping mutant); assay: as above

binding [1]: binds
binding [2]: no binding
B1: YFP-tagged full-length p120-1A isoform (protein, UniProt P30999 1-938)
chain: MDDSEVESTASILASVKEQEAQFEKLTRALEEERRHVSAQLERVRVSPQDANSLMANGTLTRRHQNGRFVGDADLERQKFSDLKLNGPQDHNHLLYSTIPRMQEPGQIVETYTEEDPEGAMSVVSVETTDDGTTRRTETTVKKVVKTMTTRTVQPVPMGPDGLPVDASAVSNNYIQTLGRDFRKNGNGGPGPYVGQAGTATLPRNFHYPPDGYGRHYEDGYPGGSDNYGSLSRVTRIEERYRPSMEGYRAPSRQDVYGPQPQVRVGGSSVDLHRFHPEPYGLEDDQRSMGYDDLDYGMMSDYGTARRTGTPSDPRRRLRSYEDMIGEEVPPDQYYWAPLAQHERGSLASLDSLRKGMPPPSNWRQPELPEVIAMLGFRLDAVKSNAAAYLQHLCYRNDKVKTDVRKLKGIPILVGLLDHPKKEVHLGACGALKNISFGRDQDNKIAIKNCDGVPALVRLLRKARDMDLTEVITGTLWNLSSHDSIKMEIVDHALHALTDEVIIPHSGWEREPNEDCKPRHIEWESVLTNTAGCLRNVSSERSEARRKLRECDGLVDALIFIVQAEIGQKDSDSKLVENCVCLLRNLSYQVHREIPQAERYQEALPTVANSTGPHAASCFGAKKGKDEWFSRGKKPTEDPANDTVDFPKRTSPARGYELLFQPEVVRIYISLLKESKTPAILEASAGAIQNLCAGRWTYGRYIRSALRQEKALSAIAELLTSEHERVVKAASGALRNLAVDARNKELIGKHAIPNLVKNLPGGQQNSSWNFSEDTVVSILNTINEVIAENLEAAKKLRETQGIEKLVLINKSGNRSEKEVRAAALVLQTIWGYKELRKPLEKEGWKKSDFQVNLNNASRSQSSHSYDDSTLPLIDRNQKSDKKPDREEIPMSNMGSNTKSLDNNYSTLNERGDHNRTLDRSGDLGDMEPLKGAPLMQKI

binding [3]: no binding
B2: YFP–p120-1A Y335F (protein, UniProt P30999 1-938)
chain: B1 chain with Y335F
